This note sets out measurements from PubChem BioAssay AID1508623 (National Center for Advancing Translational Sciences (NCATS), 2021).

About 450 (0.94%) of roughly 48,000 compounds were called active. Another 19% or so got no clear call; they are omitted. The call rests on the fitted dose curve; in most records, active means well fitted inhibition curve with a large enough effect; inconclusive means small, poorly fitted or top-dose-only effect; inactive means no such curve, though single readings can be large or run the other way. Some of the results follow.

The nature of the assay: Primary qHTS for Identification of Small Molecule Inhibitors of Huntingtin Promoter Activity. Further: nearly all actives have a fitted effect of over 50% in size. The note with it: HEK293 HTT promoter firefly luciferase reporter (activity 0% = vehicle and -100% = no light), 24 h; series mostly up to 57.5 µM; activity change, negative = inhibition: at the top concentration. The gist of the method:
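HEK293 cells carrying firefly luciferase reporters were seeded at 2,500 per well in Opti-MEM and cultured for 24 h. They were then treated with compounds at up to 57.5 uM final for 24 h at 37 degrees C before Dual-Glo luminescence readout.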
For orientation: In qHTS, concentration-response curves come from the screen itself.
For the molecule `Cc1ccc(NC(=O)c2ncn(-c3ccccc3)n2)cc1Cl`, the “activity change, negative = inhibition” value is inactive: 52.2%.

In the case of `COc1ccc(NC(=O)c2oc3ccccc3c2NC(=O)c2cc(=O)c3c(C)cc(C)cc3o2)cc1`, the “activity change, negative = inhibition” value is inactive: 21.3%. The value for `Cc1nc(-n2nc(C)c(Cc3ccccc3Cl)c2C)sc1C(=O)N1CCCCC1C` (configuration not stated) was inactive: -5.65%; that for `COc1ccc(-c2nc(C(=O)Nc3cccc(C(C)=O)c3)nn2-c2ccc(Cl)cc2)cc1` was inactive: -4.2%. For `Cc1ccc(NC(=O)CS(=O)(=O)c2nc(-c3ccc(C)cc3)cn2-c2ccc(C)cc2)cc1` the value was inactive: -13.6%; for `NC(=O)[C@@H]1CSSCCC(=O)N[C@@H](CCCCN=C(N)N)C(=O)NCC(=O)N[C@@H](CC(=O)O)C(=O)N[C@@H](Cc2c[nH]c3ccccc23)C(=O)N2CCC[C@H]2C(=O)N1`, inactive: 1.01%. The value for `CCOc1ccccc1NC(=O)CC1C(=O)NCCN1C(=O)c1ccc(F)cc1` (configuration not stated) was inactive: -6.08%.

Consider `COc1ccc(OC)c(Nc2nc3ccccc3n3c(C)nnc23)c1`, for which the “activity change, negative = inhibition” value is inactive: 0.572%. For `O=C(Nc1cc(-c2nc3cc(Cl)ccc3o2)ccc1Cl)c1cccs1` the value was inactive: -6.71%.

`C#CC(C)(CC)NC(=O)Cn1nnc(-c2ccc(OCc3ccccc3F)cc2)n1` (configuration not stated): the “activity change, negative = inhibition” value was inactive: -3.75%. For `COCCCNC(=O)c1cc2n(n1)CCCN(Cc1ccc(C)cc1)C2=O` the value was inactive: -0.791%. For `CC(=O)SC[C@@H](C)C(=O)N1CCC[C@H]1C(=O)N[C@@H](Cc1ccccc1)C(=O)O` the value was inactive: -1.49%. With `CC[C@H](C)[C@H](N)C(=O)O`, the “activity change, negative = inhibition” value was inactive: 10.6%. For the molecule `COc1ccc(OC)c(NC(=O)c2cc3c(s2)-c2ccccc2SC3)c1`, the “activity change, negative = inhibition” value was inactive: -6.34%. The value for `COc1ccccc1-c1c(C)nn2c(N3CCN(c4cccc(Cl)c4)CC3)cc(C)nc12` was inactive: -13%. Consider `Cc1c(NS(=O)(=O)c2cccc(C(=O)O)c2)c(=O)n(-c2ccccc2)n1C`, for which the “activity change, negative = inhibition” value was inactive: 2.9%. With `O=C(CSc1nnc(CNC(=O)c2c(F)cccc2Cl)o1)Nc1ccccc1F`, the “activity change, negative = inhibition” value was inactive: -5.23%.

With `CCC(=O)N1c2ccccc2CC1C(=O)NCc1ccccc1C` (configuration not stated), the “activity change, negative = inhibition” value was inactive: 0%. The value for `CS(=O)(=O)c1ncc(N(Cc2ccco2)Cc2ccco2)c(C(=O)Nc2ccccc2Br)n1` was inactive: -16%. For `CNc1nc(Oc2ccc(=O)n(C)n2)nc(N2CCOCC2)n1` the value was inactive: 2.63%; for `Cn1c(SCC(=O)N2CCCc3ccccc32)ncc(C(=O)Nc2ccc(Cl)cc2)c1=O`, inactive: -10.1%; for `CCc1nc2nc(C)cc(Nc3ccc(OC)cc3)n2n1`, inactive: -23%. For `CN(C1CCCCC1)S(=O)(=O)c1ccc2c(c1)c(=O)c(C(=O)NCCc1ccc(Cl)cc1)cn2C` the value was inactive: -6.19%. In the case of `CSCCC(NS(=O)(=O)c1ccc2c(c1)oc(=O)n2C)C(=O)NCCc1ccc(C)cc1` (configuration not stated), the “activity change, negative = inhibition” value was inactive: -10.3%. The value for `CCS(=O)(=O)N1CCC(C(=O)NCCC(C)C)CC1` was inactive: -15.6%. Turning to `COc1cccc(OCCCCn2c(-c3ccc(Cl)cc3)nc3ccccc3c2=O)c1`, the “activity change, negative = inhibition” value is inactive: -7.64%. The value for `O=S(=O)(NCCSc1nnnn1-c1ccccc1)c1ccc(F)cc1` was inactive: -18.1%; that for `Cc1ccc(-c2onc(C)c2C)cc1S(=O)(=O)NCc1ccco1` was inactive: -18.8%; that for `O=c1[nH]cnc2nc[nH]c12` was inactive: 20.2%. The value for `CC(=O)Nc1ccc(S(=O)(=O)NC2(C(F)(F)F)NC(=O)N(c3ccc(C)cc3)C2=O)cc1` (configuration not stated) was inactive: -1.13%; that for `O=C(c1cccc([N+](=O)[O-])c1)N1c2ncnn2C2(CCCCC2)[C@@H]2CCCC[C@@H]21` was inactive: -35.5%.

Consider `Cc1ccc(S(=O)(=O)c2cnc(SCC(=O)Nc3ccc4c(c3)OCCO4)[nH]c2=O)cc1`, for which the “activity change, negative = inhibition” value is inactive: -5%.

Regarding `Cc1cccc(OCc2ccc(-c3nc(C#N)c(NCCN(C)C)o3)o2)c1`, the “activity change, negative = inhibition” value is inactive: -4.1%.

`Cc1cc(Nc2ccc(C)c(C)c2)n2cnnc2n1`: the “activity change, negative = inhibition” value is inactive: 5.5%. Take `COc1ccc2c(c1)c1c(c(=O)n(-c3ccccc3C)c(=O)n1CC(=O)NCc1ccc(C)cc1)n2C`: the “activity change, negative = inhibition” value was inactive: -27.9%. In the case of `CCOC(=O)c1c(C)oc2nc(C)nc(NCc3ccccc3Cl)c12`, the “activity change, negative = inhibition” value was inactive: 7.82%. On to `Cc1ccc2cccc(NC(=O)COc3ccccc3[N+](=O)[O-])c2n1`, for which the “activity change, negative = inhibition” value is inactive: -7.17%. The value for `CCN(CC)c1ccc(NC(=O)CSc2nnc(C)c(=O)[nH]2)cc1` was inactive: -18.4%; that for `CCCN(CCC)C(=O)CSc1nnc2cc(C)c3cc(C)cc(C)c3n12` was inactive: -8.1%; that for `CCOC(=O)c1c(NC(=O)COc2ccccc2F)sc2c1CCCC2` was inactive: 0%. `COC(=O)c1c(-c2cccs2)csc1NC(=O)c1ccc(Cl)cc1`: the “activity change, negative = inhibition” value was inactive: 57.6%. For `CCc1ccc(N(CC)C(=O)c2ccc3c(=O)n4c(nc3c2)CCCCC4)cc1` the value was inactive: -26.1%; for `COc1ccccc1Nc1nn2c(=O)c3ccc(C(=O)NCc4cccs4)cc3nc2s1`, inactive: -32.1%; for `COc1ccc(-c2cn3c(n2)sc2cc(C(=O)NCc4ccccc4OC)ccc23)cc1`, inactive: 6.55%. For `COC(=O)c1cc(S(=O)(=O)NCC2CCN(Cc3cc(C)ccc3C)CC2)c[nH]1` the value was inactive: -18.5%; for `COc1cccc(Cn2c(CNC(=O)C(C)C)nc3cccnc32)c1`, inactive: 6.93%; for `Cc1ccc2c(=O)c(C(=O)c3ccc(F)cc3)cn(CC(=O)NCc3ccccc3)c2n1`, inactive: 6.15%. For `COc1ccc(N2CCN(C(=O)c3ccc(C)c(NC(=O)c4nsc5ccccc45)c3)CC2)cc1` the value was inactive: 15.5%.

As for `COc1ccc(OC)c(S(=O)(=O)NCCc2sc(-c3ccc(C)cc3)nc2C)c1`, the “activity change, negative = inhibition” value is inactive: -29.7%. The value for `CCOC(=O)c1c(NC(=O)/C=C/c2ccccc2)sc2c1CCCC2` was inactive: -3.83%; that for `COc1ccc(C(=O)Nc2ccc(-c3nc4ncccc4o3)cc2)cc1` was inactive: 23.4% [at 11.5 µM]; that for `CC(C)(C)OC(=O)N1CCC(c2c(C(=O)NCc3ccccn3)cnn2-c2ccccc2)CC1` was inactive: -6.94%. For `COc1cccc(CNC(=O)c2ccc(Cn3c(SCc4ccccc4)nc4cccnc43)cc2)c1`, the “activity change, negative = inhibition” value was inactive: -27.6%. In the case of `CN1[C@@H]2CCC[C@@H]1CC(NC(=O)c1nn(C)c3ccccc13)C2` (some centres not stated), the “activity change, negative = inhibition” value is inactive: -5.67%. With `COc1cc(Cl)ccc1Nc1ncc(C(=O)N2CCN(c3ccccc3OC)CC2)c2ccccc12`, the “activity change, negative = inhibition” value was inactive: -6.03%.

As to `O=C(CSc1nc(-c2ccccc2)nc2c1CCCC2)c1ccc(F)cc1`, the “activity change, negative = inhibition” value is inactive: -11.5%. As for `COc1cc(NC(=O)CCc2c(C)nc3nc(-c4cc(OC)cc(OC)c4)nn3c2C)cc(OC)c1`, the “activity change, negative = inhibition” value is inactive: -11.8%.

On to `CCCCN(CC)CCNC(=O)c1cc2c(-c3ccc(Cl)cc3)nn(C)c2s1`, for which the “activity change, negative = inhibition” value is inactive: -3.52%.

Regarding `Cc1nc2ccccc2n1CC(O)COc1ccc(C(=O)O)cc1` (configuration not stated), the “activity change, negative = inhibition” value is inactive: -7.4%.

Turning to `CCn1c(C(=O)N2CCC(C(=O)NCCc3ccccc3)CC2)cc2sccc21`, the “activity change, negative = inhibition” value was inactive: -12.4%. For the molecule `Cc1ccc(NS(=O)(=O)c2ccc(NC(=O)N3CCCC3)cc2)cc1C`, the “activity change, negative = inhibition” value was inactive: -19.3%.

On to `Cc1ccc(-n2c3nc(=O)n(C)c(=O)c-3cc3c(Cl)cccc32)c(C)c1`, for which the “activity change, negative = inhibition” value is inactive: -7.83%.
